# Screen size: about 360,000 compounds; about 520 (0.14%) were called active. The shares of active, inactive and inconclusive entries below differ from those in the screen. The call rests on the fitted dose curve; in most records, active means well fitted inhibition curve with a large enough effect; inconclusive means small, poorly fitted or top-dose-only effect; inactive means no such curve, though single readings can be large or run the other way. No potency is given beside an inconclusive call; the fits are too rough.
# Molecular target: Rap guanine nucleotide exchange factor 3 (Homo sapiens) (UniProt O95398)
# UniProt O95398, sequence (O95398 whole entry, looked up): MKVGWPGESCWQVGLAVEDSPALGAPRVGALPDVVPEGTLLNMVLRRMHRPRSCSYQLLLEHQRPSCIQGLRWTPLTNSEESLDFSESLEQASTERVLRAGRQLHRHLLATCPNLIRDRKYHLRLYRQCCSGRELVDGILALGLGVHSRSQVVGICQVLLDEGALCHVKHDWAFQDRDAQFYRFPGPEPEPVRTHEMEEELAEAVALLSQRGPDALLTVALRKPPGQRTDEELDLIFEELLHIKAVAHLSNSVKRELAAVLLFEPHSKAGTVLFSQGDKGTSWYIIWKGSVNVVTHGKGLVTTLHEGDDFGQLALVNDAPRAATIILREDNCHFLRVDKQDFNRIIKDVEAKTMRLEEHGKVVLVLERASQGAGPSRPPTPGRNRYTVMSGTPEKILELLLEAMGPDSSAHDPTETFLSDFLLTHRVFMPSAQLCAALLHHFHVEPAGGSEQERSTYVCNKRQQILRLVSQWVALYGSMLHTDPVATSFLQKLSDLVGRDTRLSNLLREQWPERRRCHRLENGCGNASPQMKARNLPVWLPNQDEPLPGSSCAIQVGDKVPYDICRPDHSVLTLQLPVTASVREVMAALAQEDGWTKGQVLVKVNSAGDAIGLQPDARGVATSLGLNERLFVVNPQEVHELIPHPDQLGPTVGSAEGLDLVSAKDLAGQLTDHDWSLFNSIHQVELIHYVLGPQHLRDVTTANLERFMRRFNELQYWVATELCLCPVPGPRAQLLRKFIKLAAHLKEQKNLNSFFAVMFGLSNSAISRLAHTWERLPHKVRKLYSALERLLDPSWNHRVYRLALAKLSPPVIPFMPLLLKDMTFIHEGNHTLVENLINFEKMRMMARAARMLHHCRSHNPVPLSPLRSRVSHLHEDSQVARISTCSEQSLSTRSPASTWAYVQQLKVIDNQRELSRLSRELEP
# Assay: qHTS for Antagonist of cAMP-regulated guanine nucleotide exchange factor 3 (EPAC1): primary screen; further: nearly all actives have a fitted effect of over 50% in size;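 on activity change, negative = inhibition: plate controls were vehicle for no effect and positive control for full effect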
# Settings: EPAC1 GEF assay, Rap1b-BODIPY-GDP exchange fluorescence; activity change, negative = inhibition: at 115 µM (top of the series)
# Potency means the concentration at half of the fitted maximal effect; tags describe the fitted curve by direction and shape.
SMILES,"activity change, negative = inhibition",Potency
C[C@@H]1C(c2ccc(F)cc2)=NN(c2ccccc2)[C@H]1C(=O)N1CCOC1=O,inconclusive: -18.8% [inhibitor],–
CN1C2CCC1/C(=C/c1cccn1C)C(=O)/C2=C\c1cccn1C,inactive: 49.4%,–
Nc1cc(C2CCCC2)nn1-c1ccccc1,inactive: -11.5%,–
CCOC(=O)CN1CCS(=O)(=O)CC1,–,"inconclusive [inhibitor, full curve]"
CC12C(=O)N(c3nccs3)C(=O)C1C1C=CC2C1 (stereo not given),inactive: 7.6%,–
Cc1ccc(OCCn2cc(/C=N/NC(=O)c3ccncc3)c3ccccc32)cc1,–,"inconclusive [inhibitor, partial curve]"
Cc1ccccc1C(=O)N1CCC(C(=O)N2CCN(c3ncccn3)CC2)CC1,–,"inconclusive [inhibitor, single point]"
COc1ccc(OCc2cc(C(=O)N(C)Cc3cc(C)no3)no2)c(Cl)c1,inactive: -16.2%,–
O=C1NC2(CCN(Cc3ccccc3)CC2)Oc2ccccc21,–,"inconclusive [inhibitor, full curve, poor fit]"
O=[N+]([O-])CC(=Nc1ccc(Cl)cc1)N/N=C\c1oc(O)c2ccccc12,inactive: -17.4%,–
COc1cccc(C2=NOC(C(=O)N3CCN(Cc4ccccc4)CC3)C2)c1OC (stereo not given),–,"inconclusive [inhibitor, single point]"
Cc1cccc(OCC(=O)Nc2ccc(C(=O)c3ccc(C(=O)O)cc3)cc2)c1,–,"inconclusive [inhibitor, partial curve]"
CCOC(=O)[C@@H](C)N(Cc1ccc(OC)cc1)S(=O)(=O)N(Cc1ccccc1)[C@H](C(=O)OC)C(C)C,–,"inconclusive [inhibitor, single point]"
Cc1cccc(NC(=O)CSCC(=O)N2CCN(c3cccc(C(F)(F)F)c3)CC2)c1,–,"inconclusive [inhibitor, partial curve]"
Cc1ccc(S(=O)(=O)N(C(=O)c2ccco2)c2cc3sc(=O)oc3c3ccccc23)cc1,inactive: -5.82%,–
CCCCCOC(=O)C1C2C=CC3(CN(c4ccccc4C)C(=O)C13)O2 (stereo not given),inactive: 19.8%,–
COC(=O)C[C@H]1CC[C@H](NC(=O)c2ccc(F)cc2)[C@@H](CO)O1,inactive: -8.54%,–
COc1cc(NC(=O)CN2C(=O)NC(c3ccccc3)(c3ccccc3)C2=O)cc(OC)c1,–,"inconclusive [inhibitor, full curve, poor fit]"
COc1ccc(S(=O)(=O)N=Nc2c(O)[nH]c3ccccc23)cc1,inactive: 2.17%,–
COc1c(CC=C(C)C)cc(C2CC(=O)c3c(O)cc(O)cc3O2)c(CC=C(C)C)c1O (stereo not given),–,"inconclusive [inhibitor, partial curve]"
